From PMC4336329 (PLoS ONE, 2015) come the findings set out here.

SMILES strings stand for the structures. The whole screen tested about 310,000 compounds, of which about 2,200 (0.71%) showed an effect of 50% or more. The effect is printed as a negative number. The list shows a part of the results.

human ether-à-go-go-related gene (hERG) potassium channel, sequence (Q12809 whole entry, looked up): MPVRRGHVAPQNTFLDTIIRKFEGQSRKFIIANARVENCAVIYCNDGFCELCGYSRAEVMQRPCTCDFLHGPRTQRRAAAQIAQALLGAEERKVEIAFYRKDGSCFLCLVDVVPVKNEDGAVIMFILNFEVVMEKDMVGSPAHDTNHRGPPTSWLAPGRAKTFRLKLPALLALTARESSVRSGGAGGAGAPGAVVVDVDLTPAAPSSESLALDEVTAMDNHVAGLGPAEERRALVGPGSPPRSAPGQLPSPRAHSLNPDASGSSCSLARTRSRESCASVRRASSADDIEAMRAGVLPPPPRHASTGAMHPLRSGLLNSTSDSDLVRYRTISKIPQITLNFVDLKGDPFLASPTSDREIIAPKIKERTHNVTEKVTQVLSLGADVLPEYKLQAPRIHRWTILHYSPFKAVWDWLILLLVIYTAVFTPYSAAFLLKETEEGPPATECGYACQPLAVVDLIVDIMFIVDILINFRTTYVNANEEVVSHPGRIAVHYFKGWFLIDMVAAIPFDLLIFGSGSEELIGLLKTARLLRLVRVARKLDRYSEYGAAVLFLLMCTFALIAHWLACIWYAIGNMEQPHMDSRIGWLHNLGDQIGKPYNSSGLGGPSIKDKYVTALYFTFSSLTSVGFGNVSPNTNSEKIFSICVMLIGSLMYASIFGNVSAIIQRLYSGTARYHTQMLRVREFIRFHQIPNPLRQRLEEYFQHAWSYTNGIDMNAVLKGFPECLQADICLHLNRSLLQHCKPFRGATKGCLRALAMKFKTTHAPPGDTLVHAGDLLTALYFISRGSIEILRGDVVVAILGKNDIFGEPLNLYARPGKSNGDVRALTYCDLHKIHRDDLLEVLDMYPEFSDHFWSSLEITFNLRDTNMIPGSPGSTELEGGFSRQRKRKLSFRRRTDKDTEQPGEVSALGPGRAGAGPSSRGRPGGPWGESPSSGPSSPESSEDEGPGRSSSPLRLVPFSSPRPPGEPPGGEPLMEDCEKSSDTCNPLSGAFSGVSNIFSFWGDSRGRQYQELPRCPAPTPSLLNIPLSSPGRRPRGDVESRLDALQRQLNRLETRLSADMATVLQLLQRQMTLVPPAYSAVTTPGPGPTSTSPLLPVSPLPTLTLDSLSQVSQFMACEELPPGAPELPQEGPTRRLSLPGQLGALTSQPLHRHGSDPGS

This assay addresses human ether-à-go-go-related gene (hERG) potassium channel (human, UniProt Q12809). The experiment in a line: primary screen, population patch clamp on CHO cells stably expressing hERG.
`Cc1ccc(OCC(=O)c2c(N)n(C)c(=O)n(C)c2=O)c([N+](=O)[O-])n1`: the “hERG current change (%, negative = inhibition) at 1uM” value is given as 8.75%. With `Cc1c(NC(C)c2cc(Cl)ccc2O)c(=O)n(-c2ccccc2)n1C` (centres unmarked), the “hERG current change (%, negative = inhibition) at 1uM” value is -7.33%.

For the molecule `COc1cc(N=Nc2ccccc2C(=O)O)ccc1O`, the “hERG current change (%, negative = inhibition) at 1uM” value stood at 9.77%. Take `Cc1cc(C)cc(NC(=S)NC(=O)C2CC2)c1`: the “hERG current change (%, negative = inhibition) at 1uM” value is on record as 11.7%. For `COc1ccccc1NC(=O)N1CCCC1C(=O)Nc1ccc(NC(C)=O)cc1` (centres unmarked), the “hERG current change (%, negative = inhibition) at 1uM” value turned out to be 7.78%.

As to `CCOC(=O)c1c(C)[nH]c(C(=O)COC(=O)/C=C/c2ccc(OCC#N)c(OC)c2)c1C`, the “hERG current change (%, negative = inhibition) at 1uM” value came out at 8.37%.

Regarding `COCCCC1CCN(C(=O)C2CCC(=O)N(CCc3cccc(F)c3)C2)CC1` (centres unmarked), the “hERG current change (%, negative = inhibition) at 1uM” value worked out at 8.4%. Turning to `COc1ccccc1-c1nnc(SCC(=O)NCc2c(C)c(Cl)cc(C(C)C)c2O)o1`, the “hERG current change (%, negative = inhibition) at 1uM” value was 9.09%. The figure for `O=C1CC(=O)C(n2cncn2)C(c2c(F)cccc2Cl)C1` (centres unmarked) is 4.89%; for `CSc1nc(N(C)NC(=O)c2ccc(F)cc2)c2ccccc2n1` it is 10.5%. Take `CCc1cc2c(=O)nc3n(c2s1)Cc1ccccc1/C3=C(/O)c1cccc([N+](=O)[O-])c1`: the “hERG current change (%, negative = inhibition) at 1uM” value worked out at 7.54%. The result for `CC(=O)Nc1ccc(S(=O)(=O)NCCC(=O)Nc2cccc(Cl)c2)cc1` reads 12.5%; that for `O=C(NC1CCCC1)c1cccc2c1C(=O)c1ccc(N3CCCCC3)cc1S2(=O)=O`, 8.97%. As to `Cc1ccc(SCC(=O)OCC(=O)NC(C)c2ccc(Br)cc2)cc1` (centres unmarked), the “hERG current change (%, negative = inhibition) at 1uM” value stood at 2.96%. As to `CCC(=O)N(CCc1ccccc1)Cc1cc2cccc(C)c2[nH]c1=O`, the “hERG current change (%, negative = inhibition) at 1uM” value turned out to be 9.09%.

With `CCN(CC)c1ccc(/C=N\NC(=O)c2cccc3cc[nH]c23)cc1`, the “hERG current change (%, negative = inhibition) at 1uM” value is 14.4%.

In the case of `C[C@]12CS(=O)(=O)C[C@H]1SC(=S)N2c1ccccc1`, the “hERG current change (%, negative = inhibition) at 1uM” value amounted to 11.8%. The result for `COc1ccc(NC(=O)c2cccc(S(=O)(=O)N3CCN(c4ccccc4)CC3)c2)c(OC)c1` reads 3.11%; that for `Cc1cccc(C)c1OCC(=O)NNC(=O)CNC(=O)c1ccc(OC(F)F)cc1`, 1.85%. `CCCN(C(=O)c1ccc(N(C)S(=O)(=O)c2ccc(C)cc2)cc1)C1CCS(=O)(=O)C1` (centres unmarked): the “hERG current change (%, negative = inhibition) at 1uM” value is 14.8%.

As for `Cc1csc(NC(=O)CSCC(=O)Nc2ccccc2)n1`, the “hERG current change (%, negative = inhibition) at 1uM” value worked out at 9.76%. The result for `CCOC(=O)c1ccc([N+](=O)[O-])c(CS(=O)(=O)c2ccc(Cl)cc2)c1` reads -0.371%; that for `Nc1nc2nonc2nc1N1CCCCC1`, 3.91%; that for `CCOc1ccc(C2NC(=O)c3ccccc3O2)cc1` (centres unmarked), 11.5%. For `Cc1ccc(-n2nnnc2SCC(=O)c2ccc3c(c2)NC(=O)CO3)c(C)c1`, the “hERG current change (%, negative = inhibition) at 1uM” value is given as 12.6%. The figure for `CCOc1ccccc1CNC(=O)CNC(=O)c1cccs1` is 9.63%.

Consider `CCN1C(=O)C(CC(=O)NCc2ccc(Cl)cc2)N(CC)C1=O` (centres unmarked), for which the “hERG current change (%, negative = inhibition) at 1uM” value turned out to be 4.86%.

For the molecule `CN1CCc2c(sc(/N=C/c3c[nH]c4ccccc34)c2C(N)=O)C1`, the “hERG current change (%, negative = inhibition) at 1uM” value is on record as 5.96%.

For `CN1C(C(=O)Nc2ccccn2)=C(O)c2sc(Cl)cc2S1(=O)=O`, the “hERG current change (%, negative = inhibition) at 1uM” value is 14.2%. The figure for `Cc1cccc(NC(=O)c2cccc(Cn3cc(Br)c([N+](=O)[O-])n3)c2)c1C` is 8.71%; for `COc1ccc(OCc2cc(C(=O)NC(C)c3csc(C)n3)no2)c(Cl)c1` (centres unmarked) it is 33.4%; for `Cc1ccc(CNC(=O)c2ccc(N3CCC4(CC3)CC(c3ccccc3)=NO4)c(NC(=O)c3ccc(Cl)c([N+](=O)[O-])c3)c2)cc1` it is 3.96%. For `Cc1cc2c(cc1C)CSC(c1ccccc1OC(=O)C(C)(C)C)SC2`, the “hERG current change (%, negative = inhibition) at 1uM” value is given as 2.68%. Consider `COc1ccccc1C(=O)NNC(=S)NC(=O)c1sc2ccccc2c1Cl`, for which the “hERG current change (%, negative = inhibition) at 1uM” value turned out to be 14.3%. For `CCCOc1ccc(C(=O)c2ccccc2C(=O)OC2CCOC2=O)cc1OCCC` (centres unmarked), the “hERG current change (%, negative = inhibition) at 1uM” value was found to be 1.85%. The result for `O=C(N/N=C/c1ccccc1OC(=O)c1ccc2c(c1)OCO2)c1ccccc1` reads 14%; that for `Cc1nc(SCC(=O)NCc2ccccc2)c2c(=O)n(C)c(=O)n(C)c2n1`, -3.52%. The figure for `COc1ccc(-c2noc(-c3ccc4c(c3)OCO4)n2)cc1` is 4.11%; for `O=C(NC1CCCCC1)c1cc([N+](=O)[O-])ccc1N1CCCCC1` it is -6.83%; for `COc1ccc(S(=O)(=O)N2CCN(Cc3cc(OC)c(OC)cc3OC)CC2)cc1.O=C(O)C(=O)O` it is 3.15%. Take `CC(OC(=O)c1ccc2ncsc2c1)C(=O)NC1CCCCC1C` (centres unmarked): the “hERG current change (%, negative = inhibition) at 1uM” value is recorded as 11.2%. The result for `C/C(=C/c1ccccc1)C(=O)N1CC(C)OC(C)C1` (centres unmarked) reads 8.36%; that for `N#CC1=C(N)Oc2c(oc(CO)cc2=O)C1c1cccs1` (centres unmarked), 14.5%; that for `COc1ccc(C2C(C(=O)NCc3ccccc3)=C(C)Nc3ncnn32)cc1OC` (centres unmarked), 13.9%. The figure for `O=C1c2cccc3cccc(c23)C(=O)N1CCc1ccccc1` is 11.5%; for `Cc1cc(C)n2nc(SCc3ncc(-c4ccccc4)o3)nc2n1` it is 3.72%; for `Brc1ccc(Oc2nsnc2N2CCOCC2)cc1` it is -4.39%.

`CCNc1nc(NC(C)C)nc(NC(C)(C)C)n1`: the “hERG current change (%, negative = inhibition) at 1uM” value was 2.4%.

As to `C=C1CCC[C@]2(C)C[C@H]3OC(=O)C(CNC(C)CCCC(C)C)[C@H]3CC12` (some centres unmarked), the “hERG current change (%, negative = inhibition) at 1uM” value stood at 9.74%. The figure for `O=C(Nc1c[nH]c(=O)[nH]c1=O)c1ccccc1Br` is 15%. The result for `Cc1ccc(NC(=O)COCC(=O)Nc2ccc(F)cc2)cc1` reads 11.3%. The result for `C=CCOc1ccc(CNn2cn[nH]c2=S)cc1OC` reads 7.1%; that for `Nc1nonc1-n1nnc(C(=O)N/N=C/c2ccc(O)cc2)c1CN1CCCCCC1`, 12.3%. `CC(C)(C)Nc1nc(NN)nc(NC(C)(C)C)n1`: the “hERG current change (%, negative = inhibition) at 1uM” value was 16.9%. The result for `O=C1CCCN1Cc1ccccc1` reads 15.7%. The result for `COc1ccccc1CNS(=O)(=O)c1cc2c3c(c1)CCN3C(=O)CC2` reads 5.58%; that for `CC(=O)Nc1ccc(N=NC2C(=O)N(C(N)=S)N=C2C)cc1` (centres unmarked), 9.74%; that for `O=C(c1ccccc1NS(=O)(=O)c1cccc([N+](=O)[O-])c1)N1CCCC1`, 7.15%. In the case of `CCCN(C(=O)c1ccc([N+](=O)[O-])c(C)c1)c1c(N)n(Cc2ccccc2)c(=O)[nH]c1=O`, the “hERG current change (%, negative = inhibition) at 1uM” value was determined as 1.67%.

`O=C(Cc1ccc(-c2ccccc2)cc1)Nc1ccccc1`: the “hERG current change (%, negative = inhibition) at 1uM” value is on record as 16%. Regarding `CCn1c(=O)n(CC)c2cc(N3CCCC3)c(NC(=O)c3ccc(OC)c(Br)c3)cc21`, the “hERG current change (%, negative = inhibition) at 1uM” value came out at 17.5%. Consider `Cc1[nH]cnc1CSCc1ccc(F)cc1.Cl`, for which the “hERG current change (%, negative = inhibition) at 1uM” value was -1.44%. The figure for `Cc1sc2nc(CSCC(=O)NC3CCCCC3)[nH]c(=O)c2c1C` is 2.64%; for `CCCCN1C(N)=NC[C@@H]1c1ccccc1` it is 7.96%; for `CCCCn1c(N)c(N(CC)C(=O)C2CCCC2)c(=O)[nH]c1=O` it is 5.09%. As for `O=C(Oc1ccccc1)N1CCOCC1`, the “hERG current change (%, negative = inhibition) at 1uM” value was determined as 18.9%. In the case of `O=C(COC(=O)c1ccc(O)cc1)NCc1ccc2c(c1)OCO2`, the “hERG current change (%, negative = inhibition) at 1uM” value was determined as 5.5%. Turning to `CCCn1c(=O)c2ccccc2n2c(SCc3nc4ccccc4s3)nnc12`, the “hERG current change (%, negative = inhibition) at 1uM” value is 6.05%.

Consider `CCCNC(=O)C(Cc1ccccc1)NC(=O)Cc1ccccc1` (centres unmarked), for which the “hERG current change (%, negative = inhibition) at 1uM” value stood at 15.3%. The figure for `O=C1C=C(c2cc(F)ccc2F)C[C@@H](c2ccc(Cl)cc2)C1` is 9.97%; for `COc1ccccc1C(=O)Nc1cc(Cl)ccc1-n1cncn1` it is 8.54%; for `O=S(=O)(c1cccc2nsnc12)N1CCCCC1` it is -1.05%.

On to `CC(C)Cc1cc(C(=O)N2CCCC(CCC(=O)N(C)CCc3ccccn3)C2)no1` (centres unmarked), for which the “hERG current change (%, negative = inhibition) at 1uM” value is on record as 7.62%.

`O=C(O)CCN1C(=O)c2ccc(Oc3ccc([N+](=O)[O-])cc3)cc2C1=O`: the “hERG current change (%, negative = inhibition) at 1uM” value is given as 14.2%.

Regarding `O=C(O)C1CCC(=O)N1C(=O)OCc1ccccc1` (centres unmarked), the “hERG current change (%, negative = inhibition) at 1uM” value turned out to be 11.7%. The result for `Cc1ccc(Cn2ncc3c(N4CCN(Cc5ccc(Cl)cc5)CC4)ncnc32)cc1` reads 0.667%. Take `CCOC(=O)N1CCN(c2ncnc3c2oc2nc(C(C)C)c4c(c23)CCC4)CC1`: the “hERG current change (%, negative = inhibition) at 1uM” value amounted to 6.16%. Turning to `Cc1ccc2cc(CCNS(=O)(=O)c3ccc(Br)cc3)c(=O)[nH]c2c1C`, the “hERG current change (%, negative = inhibition) at 1uM” value stood at 4.24%. For the molecule `CCN(CC(=O)Nc1cc(C)on1)CC(=O)Nc1ccccc1C(F)(F)F`, the “hERG current change (%, negative = inhibition) at 1uM” value turned out to be 9.71%.

In the case of `O=C(CN1C(=O)CSc2ccc(S(=O)(=O)N3CCOCC3)cc21)NCCCN1CCc2ccccc2C1`, the “hERG current change (%, negative = inhibition) at 1uM” value is listed as 2.43%.

Consider `O=C(Cc1ccc(-c2ccccc2)cc1)NC1CCCC1`, for which the “hERG current change (%, negative = inhibition) at 1uM” value turned out to be 9.27%. Turning to `Cc1cccc(NC(=O)CN(c2ccc(F)cc2)S(C)(=O)=O)c1`, the “hERG current change (%, negative = inhibition) at 1uM” value is 4.91%. The figure for `O=C(NC1C/C(=N/O)c2cc3c(cc21)OCO3)C(F)(F)F` (centres unmarked) is 15.4%. Take `CSc1ccc(CN2CCC(CO)(CCOc3ccccc3)CC2)cc1`: the “hERG current change (%, negative = inhibition) at 1uM” value was -81.2%.

Consider `CCN(c1ccc(NC(=O)COC(=O)/C=C/c2cccs2)cc1)C(C)C`, for which the “hERG current change (%, negative = inhibition) at 1uM” value is 14.7%.

Consider `CC(C)c1nc2oc3c(NCC4CCCO4)ncnc3c2c2c1CCC2` (centres unmarked), for which the “hERG current change (%, negative = inhibition) at 1uM” value was -7.31%. The result for `COc1ccc(/C=C/C(=O)NCCCn2ccnc2)cc1` reads 2.77%; that for `O=C(NC1CCCCCCC1)C1CCN(c2nc3ccccc3o2)CC1`, -10.5%; that for `Cc1ccc(OCc2nc(C#N)c(NCc3ccco3)o2)cc1`, 5.31%.
